Source: PubChem BioAssay AID1347417 (National Center for Advancing Translational Sciences (NCATS), 2020)
About 5,300 (4.4%) of roughly 120,000 compounds were called active. This list was built around the results that the source calls inconclusive (neither active nor inactive); the mix of calls is not that of the screen. Calls come from the whole dose curve; as a rule, active = well fitted inhibition curve with a large enough effect; inconclusive = small, poorly fitted or top-dose-only effect; inactive = no such curve, though single readings can be large or run the other way. A potency beside an inconclusive call is a rough fit, not a confirmed value.
Potency is the fitted concentration of half-maximal effect; tags give direction and shape of the fitted curve.

Test: qHTS Primary assay for Inhibitors of Plasmodium falciparum Dd2 growth in vitro; note: nearly all actives have a fitted effect of over 65% in size
Settings: P. falciparum Dd2 growth, SYBR Green, 72 h; series mostly up to 28.9 µM
In short: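 Readout: SYBR Green fluorescence, 485 nm excitation, 535 nm emission, after ~16 h lysis at 37C. Before that, Dd2-infected red cells (2.5% hematocrit) grew 72 h with compound, 29 uM top final concentration.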
With COc1ccc(CCC(=O)NCCC2CCN(C(=O)Nc3cc(F)ccc3F)CC2)cc1 the Potency was inconclusive: 17.8 µM [inhibitor, single point].
In the case of COc1ccc(-c2cc(C(=O)N3C[C@@H](Oc4ccccc4)C[C@H]3C(=O)NC3CC3)[nH]n2)cc1, the Potency is reported as inconclusive: 14.1 µM [inhibitor, single point].
With Cc1ccc(Cl)cc1NC(=O)CN1C(=O)NC2(CCCCC2)C1=O the Potency was “inactive”.
In the case of Cn1cc(S(=O)(=O)N2CCCC2)cc1C(=O)Nc1ccc(C(F)(F)F)cc1, the Potency is reported as inconclusive: 10 µM [inhibitor, single point].
With Cc1nc2cccnc2n1CC1CCCN(S(=O)(=O)c2ccc(C(C)C)cc2)C1 (centres undefined) the Potency was “inactive”.
In the case of COCCOCc1nc(C2CCCN2C(=O)Nc2ccc(F)cc2F)no1 (centres undefined), the Potency is reported as “inactive”.
With O=C1CCN(S(=O)(=O)c2ccccc2)CCCN(C(=O)CN2CCOCC2)CCN1 the Potency was “inactive”.
With Cc1cccc(S(=O)(=O)N2CCC(Oc3ncccc3C(=O)N3CCOCC3)C2)c1 (centres undefined) the Potency was “inactive”.
With Cn1cc(-c2cnc3[nH]cc(CC(=O)Nc4cccnc4)c3c2)cn1 the Potency was inconclusive: 14.1 µM [inhibitor, single point].
In the case of O=C(Nc1cccc(-c2ccc(N3CCOCC3)nn2)c1)Nc1cccc(Cl)c1F, the Potency is reported as inconclusive: 17.8 µM [inhibitor, single point].
In the case of COC[C@@H]1CN(Cc2cccc(C#N)c2)C[C@H]1c1ccccn1, the Potency is reported as inconclusive: 8.91 µM [inhibitor, partial curve, poor fit].
With Cc1nnc(CN2CCOc3c(O)cc(-c4ccccc4C)cc3C2)s1 the Potency was inconclusive: 11.2 µM [inhibitor, single point].
For Cn1c(=O)c(=O)n(C)c2cc(N3CCCC3)c(NC(=O)c3ccc(C(C)(C)C)cc3)cc21, the Potency was inconclusive: 17.8 µM [inhibitor, single point].
In the case of O=C(CN1CCCCC1)N1CCCC(N2CCN(Cc3ccc4c(c3)OCO4)CC2)C1 (centres undefined), the Potency is reported as inconclusive: 17.8 µM [inhibitor, single point].
For CC(=O)Nc1cccc(NC(=O)C2(c3cccs3)CCOCC2)c1, the Potency was “inactive”.
In the case of Cc1cccc(Cn2c(SCc3ccc(C(=O)NCCc4ccccc4)cc3)nc3cccnc32)c1, the Potency is reported as active: 11.2 µM.
In the case of COc1cccc(CNC(=O)Cn2nc3n(c2=O)CCCCC3)c1OC, the Potency is reported as “inactive”.
With Cc1ccc(CN2CCCCCCNC(=O)[C@@H]3CCC[C@@H]32)o1 the Potency was inconclusive: 2.82 µM [inhibitor, partial curve, poor fit].
For CN(C)c1ccc(CN2CCC3(CC2)CC(=O)c2ccccc2O3)cc1, the Potency was inconclusive: 2.24 µM [inhibitor, partial curve, poor fit].
